# Results taken from PubChem BioAssay (Tox21).
# Where “and” joins values, the source holds several entries; their conditions need not be identical. Identical values can stand only once. Inconclusive means that the source gave no clear call. Such entries were picked first, then a sample of the others. For some assays here: Potencies of inconclusive entries are doubtful fits and often do not repeat. Calls of active or inactive are those of the source. Unless noted, calls follow the shape of the dose curve; as a rule, active = well fitted curve in the direction sought with a large enough effect in the repeat runs; inconclusive = weak or mixed curves; inactive = no such curve, though single readings can be large; an effect the other way counts as inactive or inconclusive.
# Columns and labels:
# [1] = qHTS assay to identify small molecule agonists of the constitutive androstane receptor (CAR) signaling pathway - cell viability counter screen (AID 1224836); also: nearly all actives have a fitted effect of over 45% in size; also: potency is read from the fitted curve at half-maximal effect
# How it was run: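 Cells were seeded and incubated 4 hrs. Compounds were added across 15 concentrations together with PK11195 at 0.75 uM final. Plates were incubated 23 hrs at 37 C. CellTiter-Fluor was added and fluorescence measured.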
# [2] = qHTS assay to identify small molecule antagonists of the constitutive androstane receptor (CAR) signaling pathway - cell viability counter screen (AID 1224837); also: nearly all actives have a fitted effect of over 45% in size; also: potency is read from the fitted curve at half-maximal effect
# How it was run: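 Fluorescence from CellTiter-Fluor served as the viability signal. Human hepatoma HepG2 cells stably bearing hCAR and CYP2B6-2.2kb received compound plus CITCO (50 nM final) for 23 hr.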
# [3] = qHTS assay to identify small molecule antagonists of the estrogen related receptor signaling pathway with the pleiotropic PPARgamma coactivator (PGC) from Tox21 10K library - cell viability counter screen (AID 1224840; active = well fitted cell-killing curve with a large enough effect in the repeat runs, not every such curve was filed as active; inconclusive = weak or mixed curves, or effect the other way; inactive = no such curve, though single readings can be large or run the other way; also: potency is read from the fitted curve at half-maximal effect; nearly all actives have a fitted effect of over 40% in size)
# How it was run: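 Compounds in DMSO, alongside positive and negative controls, were pinned onto PGC/ERR cells (2,000 per well). Exposure lasted 17.5 hours at 37 C, followed by a 30-minute CellTiter-Fluor incubation and fluorescence reading.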
# [4] = qHTS assay to identify small molecule agonists of the estrogen related receptor signaling pathway with the pleiotropic PPARgamma coactivator (PGC) from Tox21 10K library (AID 1224842); also: potency is read from the fitted curve at half-maximal effect; nearly all actives have a fitted effect of over 15% in size
# How it was run: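 Luminescence from One-Glo (30 min, room temperature) measured after PGC/ERR cells had 18 h at 37 C with pinned compound (23 nL in DMSO). Cells had been seeded at 2,000 per well and pre-incubated 6 h.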
# [5] = qHTS assay to identify small molecule agonists of the hypoxia (HIF-1) signaling pathway (AID 1224846; active = well fitted activation curve with a large enough effect in the signal ratio in the repeat runs, not every such curve was filed as active; inconclusive = weak or mixed curves; the % refers to the signal ratio; also: potency is read from the fitted curve at half-maximal effect; as to activation: % is scaled to controls: 0 for no effect and ±100 for the full control effect); settings: HRE-bla ME-180 cells, beta-lactamase ratio, 17 h; activation: at 76.8 µM (top of the series) unless noted
# How it was run: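 Measured by blue/green FRET after loading CCF4-AM: beta-lactamase expressed from a hypoxia response element in ME-180 cells. Test agents were delivered in DMSO and left 17 hrs; cells had been plated 5 hrs earlier in low-serum (0.5% dialyzed FBS) medium.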
# [6] = qHTS assay to identify small molecule agonists of H2AX - cell viability counter screen (AID 1224847; calls by dose curve; also: potency is read from the fitted curve at half-maximal effect; nearly all actives have a fitted effect of over 30% in size)
# How it was run: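 Cytotoxicity counter screen in wild-type CHO-K1 cells: a 3 hr compound treatment at 37C across 15 concentrations, followed by CellTiter-Glo luminescence to gauge viable cells.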
# [7] = qHTS assay to identify small molecule antagonists of the estrogen related receptor (ERR) signaling pathway from Tox21 library (AID 1224848); also: potency is read from the fitted curve at half-maximal effect; nearly all actives have a fitted effect of over 50% in size
# How it was run: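 Antagonist-mode screen of the Tox21 10K library in an NTP-provided ERR reporter cell line; 18 h compound exposure at 37 C, luminescence measured with ONE-Glo.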
# [8] = qHTS RealTime-Glo MT Cell Viability Assay in HepG2 cells - 24 hour (AID 1224867); also: potency is read from the fitted curve at half-maximal effect; nearly all actives have a fitted effect of over 50% in size
# How it was run: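 Tox21 10K library screened in qHTS format on HepG2 cells carrying RealTime-Glo reagents. Compounds were added after a 5 h preincubation, and the luminescent signal from continuous culture was measured repeatedly during 40 h treatment.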
# [9] = A CellTox Green Cytotoxicity Assay to monitor cytotoxicity in HEK293 cells - 0 hour (AID 1224869); also: potency is read from the fitted curve at half-maximal effect; nearly all actives have a fitted effect of over 50% in size
# How it was run: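 Each value comes from one timepoint of a single continuous run in which HEK293 cells with CellTox Green were exposed to compound for up to 40 h at 37 C, dye fluorescence rising with cell death.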
# [10] = biological target: Thyrotropin receptor (Homo sapiens) (UniProt P16473); test: qHTS assay to identify small molecule agonists of the thyroid stimulating hormone receptor (TSHR) signaling pathway (AID 1224843; calls by dose curve; also: nearly all actives have a fitted effect of over 45% in size; also: potency is read from the fitted curve at half-maximal effect; as to activation: % is scaled to controls: 0 for no effect and ±100 for the full control effect); settings: TSHR-HEK293 cells, cAMP HTRF, agonist mode, 30 min; activation: at 92.4 µM (top of the series) unless noted
# UniProt P16473, sequence (P16473 whole entry, looked up): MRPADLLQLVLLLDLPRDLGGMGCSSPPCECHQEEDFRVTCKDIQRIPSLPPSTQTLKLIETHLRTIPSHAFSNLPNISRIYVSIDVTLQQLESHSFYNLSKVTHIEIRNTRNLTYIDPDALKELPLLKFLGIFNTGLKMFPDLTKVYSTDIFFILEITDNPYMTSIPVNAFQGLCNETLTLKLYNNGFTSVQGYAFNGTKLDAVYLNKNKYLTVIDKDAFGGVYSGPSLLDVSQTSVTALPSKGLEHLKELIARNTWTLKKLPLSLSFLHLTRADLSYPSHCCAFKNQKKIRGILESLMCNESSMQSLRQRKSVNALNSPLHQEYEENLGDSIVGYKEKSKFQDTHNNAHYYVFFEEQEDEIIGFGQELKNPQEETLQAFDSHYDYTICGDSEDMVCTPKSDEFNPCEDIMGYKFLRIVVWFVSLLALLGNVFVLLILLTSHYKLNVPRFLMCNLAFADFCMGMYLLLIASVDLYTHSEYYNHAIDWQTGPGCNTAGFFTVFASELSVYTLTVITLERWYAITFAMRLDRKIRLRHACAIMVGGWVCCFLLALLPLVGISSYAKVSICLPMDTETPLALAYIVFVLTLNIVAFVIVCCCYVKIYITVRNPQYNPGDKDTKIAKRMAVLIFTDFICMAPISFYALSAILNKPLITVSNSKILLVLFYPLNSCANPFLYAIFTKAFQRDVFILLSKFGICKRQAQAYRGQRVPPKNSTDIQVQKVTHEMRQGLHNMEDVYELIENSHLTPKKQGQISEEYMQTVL
# How it was run: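 Screening of the Tox21 10K collection used HEK293 cells engineered with TSHR at 800 cells per well. After a 30-min room-temperature compound exposure, HTRF cAMP reagents were added and fluorescence recorded 1 h later.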
# [11] = qHTS assay to identify small molecule agonists of the hypoxia (HIF-1) signaling pathway - cell viability counter screen (AID 1224844; calls by dose curve; also: nearly all actives have a fitted effect of over 50% in size; also: potency is read from the fitted curve at half-maximal effect)
# How it was run: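 Luminescent ATP content (CellTiter-Glo, 30 min, room temperature) served as the viability measure in HRE-bla ME-180 cells exposed to compounds for 17 hrs in low-serum medium (0.5% dialyzed FBS).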
# [12] = biological target: Nuclear receptor subfamily 1 group I member 3 (Homo sapiens) (UniProt Q14994); test: qHTS assay to identify small molecule antagonists of the constitutive androstane receptor (CAR) signaling pathway (AID 1224838);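 also: HepG2 cells stably expressing hCAR with CYP2B6 luciferase reporter stimulated by CITCO; nearly all actives have a fitted effect of over 40% in size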; also: potency is read from the fitted curve at half-maximal effect
# UniProt Q14994, sequence (Q14994 whole entry, looked up): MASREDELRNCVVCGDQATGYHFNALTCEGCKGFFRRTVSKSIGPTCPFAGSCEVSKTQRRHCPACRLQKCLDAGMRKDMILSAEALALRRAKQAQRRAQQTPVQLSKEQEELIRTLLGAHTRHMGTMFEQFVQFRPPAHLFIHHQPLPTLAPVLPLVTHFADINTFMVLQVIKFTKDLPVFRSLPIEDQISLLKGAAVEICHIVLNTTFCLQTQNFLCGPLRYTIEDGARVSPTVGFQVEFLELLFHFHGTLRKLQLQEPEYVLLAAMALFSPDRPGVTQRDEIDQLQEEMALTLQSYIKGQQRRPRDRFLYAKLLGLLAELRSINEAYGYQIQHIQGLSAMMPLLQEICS
# How it was run: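 Quantitative HTS in double-stable HepG2-CYP2B6-hCAR cells. After 4 h plating, cells get compound (15 concentrations) and CITCO at 50 nM final, incubate 24 h at 37 C, then ONE-Glo luminescence is read.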
# [13] = qHTS assay to identify small molecule agonists of H2AX (AID 1224845; active = well fitted activation curve with a large enough effect in the signal ratio in the repeat runs, not every such curve was filed as active; inconclusive = weak or mixed curves; the % refers to the signal ratio; also: potency is read from the fitted curve at half-maximal effect); settings: CHO-K1 phospho-H2AX Ser139 HTRF, 3 h; activation (H2AX phosphorylation): at 154 µM (top of the series) unless noted
# How it was run: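 Phospho-H2AX Ser139 measured by HTRF (ex 320 nm; em 665 and 620 nm) after 24 hr antibody incubation. Compounds, 15 concentrations, 0.76% DMSO, were applied to CHO-K1 cells for 3hr at 37C before lysis.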
# [14] = qHTS RealTime-Glo MT Cell Viability Assay in HEK293 cells - 32 hour (AID 1224868)
# How it was run: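 Luminescence generated by NanoLuc from substrate produced by living HEK293 cells served as the viability signal. Each value reflects the reading at its stated time point during continuous 40 h compound exposure at 37 C.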
# [15] = biological target: Nuclear receptor subfamily 1 group I member 3 (Homo sapiens) (UniProt Q14994); test: qHTS assay to identify small molecule agonists of the constitutive androstane receptor (CAR) signaling pathway (AID 1224839); also: potency is read from the fitted curve at half-maximal effect; nearly all actives have a fitted effect of over 15% in size
# How it was run: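 Cells were plated and incubated 4 hrs, then dosed with compounds at 15 concentrations. PK11195 was added to 0.75 uM final. After 24 hrs at 37 C, luciferase luminescence was measured.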
# [16] = qHTS assay to identify small molecule agonists of the estrogen related receptor (ERR) signaling pathway from Tox21 library (AID 1224849; calls by dose curve; also: % is scaled to controls: 0 for no effect and ±100 for the full control effect; nearly all actives have a fitted effect of over 15% in size); settings: ERR reporter cell line, ONE-Glo luciferase, 18 h; at 92.4 µM (top of the series) unless noted
# How it was run: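 We plated ERR reporter cells, waited 6 h, added compounds in DMSO by pin tool and incubated them 18 h at 37 C. ONE-Glo was then added and luminescence read after 30 min.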
# Tags tell the direction and shape of the fitted curve or compound fluorescence and quenching.
smiles,measurement,setting,value
COc1cc(C(=O)NC2CCN(C)CC2)ccc1Nc1ncc2c(n1)N(C1CCCC1)CC(F)(F)C(=O)N2C,Potency,[1],"inconclusive: 22.3 µM [cytotoxic, partial curve]"
same,Potency,[2],"inconclusive: 15.8 µM [cytotoxic, full curve]"
same,Potency,[3],active: 35.3 µM
same,Potency,[4],active: 2.5 µM
same,Potency,[5],inactive
same,Potency,[6],inconclusive: 104 µM [cytotoxic]
same,Potency,[7],"inconclusive: 56 µM [inhibitor, partial curve, poor fit]"
same,Potency,[8],active: 40 µM
same,Potency,[9],"inconclusive: 20 µM [activator, single point]"
CCCCCCCCCCCC[N+](C)(C)Cc1ccccc1,Potency,[1],active: 47.6 µM and active: 59.2 µM and active: 29.8 µM
same,Potency,[2],"inconclusive: 74.5 µM [cytotoxic, partial curve]"
same,Potency,[10],"active: 30 µM and active: 37.4 µM and inconclusive: 26.6 µM [activator, partial curve]"
same,Potency,[11],"inconclusive: 75.2 µM [cytotoxic, single point] and inconclusive: 10.7 µM [cytotoxic, partial curve, poor fit]"
same,Potency,[5],"inconclusive: 48 µM [falling, partial curve] and inconclusive: 59.7 µM [falling, partial curve] and inconclusive: 6.74 µM [falling, partial curve]"
same,Potency,[6],active: 98.8 µM and active: 110 µM and active: 49.2 µM
same,Potency,[8],active: 12.1 µM and active: 21.2 µM and active: 8.49 µM
Cc1[nH]c(=O)c(C#N)cc1-c1ccncc1,Potency,[1],inactive
same,Potency,[12],inactive
same,Potency,[10],"inconclusive: 5.45 µM [activator, full curve] and inconclusive: 7.5 µM [activator, partial curve]"
CCCCCCOc1ccc(O)cc1,Potency,[1],"inconclusive: 21.7 µM [cytotoxic, partial curve]"
same,Potency,[2],"inconclusive: 38.6 µM [cytotoxic, partial curve, poor fit]"
same,Potency,[4],active: 13.7 µM
same,Potency,[11],active: 54.9 µM
same,Potency,[13],active: 11.3 µM
same,Potency,[5],inconclusive: 54.9 µM [single point]
same,Potency,[6],active: 113 µM
same,Potency,[8],"inconclusive: 38.9 µM [falling, partial curve]"
same,Potency,[14],active: 0.0692 µM
[Cl][Au]([Cl])[Cl],Potency,[1],active: 7.7 µM
same,Potency,[2],active: 3.86 µM
same,activation,[10],inconclusive: 30.4%
same,Potency,[11],active: 3.89 µM
same,Potency,[13],"inconclusive: 101 µM [falling, partial curve]"
same,Potency,[5],"inconclusive: 1.95 µM [falling, full curve]"
same,Potency,[7],active: 3.06 µM
same,Potency,[14],"inconclusive: 0.11 µM [rising, full curve]"
COC(=O)C1=C(C)NC(C)=C(C(=O)OCCCN2CCC(c3ccccc3)(c3ccccc3)CC2)C1c1cccc([N+](=O)[O-])c1 (stereo unspecified),Potency,[1],"inconclusive: 21.1 µM [cytotoxic, partial curve]"
same,Potency,[2],active: 23.7 µM
same,activation,[10],inconclusive: -4.19% [at 42.5 µM]
same,Potency,[5],"inconclusive: 23.9 µM [falling, partial curve]"
same,Potency,[6],inconclusive: 55.2 µM [cytotoxic]
same,Potency,[8],"inconclusive: 21.3 µM [falling, partial curve]"
C=CC(C)(CCC=C(C)C)OC(=O)/C=C/c1ccccc1 (stereo unspecified),Potency,[1],inactive
same,Potency,[15],"inconclusive: 54.5 µM [activator, partial curve]"
same,Potency,[13],"inconclusive: 127 µM [activator, single point]"
Cc1c(C)c2c(c(C)c1O)CC[C@@](C)(CCC[C@H](C)CCC[C@H](C)CCCC(C)C)O2,Potency,[1],inactive
same,Potency,[2],inactive
same,activation,[10],inconclusive: 4.05%
same,Potency,[11],inactive
C[C@H](CN1CCCC1)C(=O)c1ccc(C(F)(F)F)cc1,Potency,[12],"inconclusive: 33.5 µM [inhibitor, single point]"
C#C[C@]1(O)CC[C@H]2[C@@H]3CCc4cc(OC5CCCC5)ccc4[C@H]3CC[C@@]21C,Potency,[12],"inconclusive: 33.5 µM [inhibitor, single point]"
O=C1NCCN1CCN1CCC(c2cn(-c3ccc(F)cc3)c3ccc(Cl)cc23)CC1,Potency,[4],inconclusive: 33.5 µM [activator]
same,"activity change, positive = activation",[16],inactive: -56.2% [at 42.5 µM]
Cc1c(-c2cccnc2)c2ccccc2n1CCCCC(=O)O,Potency,[4],"inconclusive: 27.3 µM [activator, single point]"
C=CC(=O)OCCOCCOCC,"activity change, positive = activation",[16],inconclusive: 13.7%
OC[C@]1(O)OC[C@@H](O)[C@H](O)[C@@H]1O,Potency,[9],"inconclusive: 26.8 µM [activator, single point]"
